Data taken from the supplement of paper PMC8728848.
This is one part of the list.

Key:
Experiment in all cases: glycan array binding signal (z-score within array); higher = stronger binding
Settings in all cases: glycan notation: IUPAC condensed, linker removed
[1] = target: Gal3S(b1-3)[Fuc(a1-4)]GlcNAc
How it was run: (§1)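 The Consortium for Functional Glycomics database supplied 3228 glycan arrays, of which those lacking an available protein sequence were dropped. The binding signal, a within-array Z-score, was averaged across arrays of the same protein sequence and across linkers. Negative scores can be read as non-binding.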

Gal3S(b1-4)Glc = target: Gal3S(b1-4)Glc
How it was run: as §1

Gal3S(b1-4)Glc6S = target: Gal3S(b1-4)Glc6S
How it was run: as §1

Gal3S(b1-4)GlcNAc = target: Gal3S(b1-4)GlcNAc
How it was run: as §1

[2] = target: Gal3S(b1-4)[Fuc(a1-3)]Glc6S
How it was run: as §1

[3] = target: Gal3S(b1-4)[Fuc(a1-3)]GlcNAc
How it was run: as §1

[4] = target: Gal3S(b1-4)[Fuc(a1-3)]GlcNAc6S
How it was run: as §1

Gal3S4S(b1-4)GlcNAc = target: Gal3S4S(b1-4)GlcNAc
How it was run: as §1

Gal3S6S(b1-4)GlcNAc = target: Gal3S6S(b1-4)GlcNAc
How it was run: as §1

Gal3S6S(b1-4)GlcNAc6S = target: Gal3S6S(b1-4)GlcNAc6S
How it was run: as §1

Gal4S(b1-4)GlcNAc = target: Gal4S(b1-4)GlcNAc
How it was run: as §1

Gal4S6S(b1-4)GlcNAc = target: Gal4S6S(b1-4)GlcNAc
How it was run: as §1

Gal6P(b1-4)GlcNAc = target: Gal6P(b1-4)GlcNAc
How it was run: as §1

Gal6S(b1-3)GlcNAc = target: Gal6S(b1-3)GlcNAc
How it was run: as §1

Gal6S(b1-3)GlcNAc6S = target: Gal6S(b1-3)GlcNAc6S
How it was run: as §1

Gal6S(b1-4)Glc = target: Gal6S(b1-4)Glc
How it was run: as §1

Gal6S(b1-4)Glc6S = target: Gal6S(b1-4)Glc6S
How it was run: as §1

Gal6S(b1-4)GlcNAc = target: Gal6S(b1-4)GlcNAc
How it was run: as §1

Gal6S(b1-4)GlcNAc6S = target: Gal6S(b1-4)GlcNAc6S
How it was run: as §1

GalNAc(a1-3)Gal = target: GalNAc(a1-3)Gal
How it was run: as §1

GalNAc(a1-3)GalNAc = target: GalNAc(a1-3)GalNAc
How it was run: as §1

[5] = target: GalNAc(a1-3)GalNAc(b1-3)Gal(a1-4)Gal(b1-4)Glc
How it was run: as §1

[6] = target: GalNAc(a1-3)GalNAc(b1-3)Gal(a1-4)Gal(b1-4)GlcNAc
How it was run: as §1

GalNAc(b1-3)Gal = target: GalNAc(b1-3)Gal
How it was run: as §1

[7] = target: GalNAc(b1-3)Gal(a1-4)Gal(b1-4)GlcNAc
How it was run: as §1

[8] = target: GalNAc(b1-3)Gal(a1-4)Gal(b1-4)GlcNAc(b1-3)Gal(b1-4)Glc
How it was run: as §1

[9] = target: GalNAc(b1-3)Gal(a1-6)Gal(b1-4)Glc
How it was run: as §1

GalNAc(b1-3)GalNAc = target: GalNAc(b1-3)GalNAc
How it was run: as §1

GalNAc(b1-3)GlcNAc = target: GalNAc(b1-3)GlcNAc
How it was run: as §1

GalNAc(b1-4)Gal(b1-4)Glc = target: GalNAc(b1-4)Gal(b1-4)Glc
How it was run: as §1

GalNAc(b1-4)GlcNAc = target: GalNAc(b1-4)GlcNAc
How it was run: as §1

[10] = target: GalNAc(b1-4)GlcNAc(b1-2)Man
How it was run: as §1

[11] = target: GalNAc(b1-4)GlcNAc(b1-2)Man(a1-3)[GalNAc(b1-4)GlcNAc(b1-2)Man(a1-6)]Man(b1-4)GlcNAc(b1-4)GlcNAc
How it was run: as §1

[12] = target: GalNAc(b1-4)GlcNAc(b1-3)GalNAc(b1-4)GlcNAc
How it was run: as §1

GalNAc(b1-4)GlcNAc6S = target: GalNAc(b1-4)GlcNAc6S
How it was run: as §1

GalNAc(b1-6)GalNAc = target: GalNAc(b1-6)GalNAc
How it was run: as §1

GalNAc3S(b1-4)GlcNAc = target: GalNAc3S(b1-4)GlcNAc
How it was run: as §1

GalNAc3S(b1-4)GlcNAc3S = target: GalNAc3S(b1-4)GlcNAc3S
How it was run: as §1

[13] = target: GalNAc3S(b1-4)[Fuc(a1-3)]GlcNAc
How it was run: as §1

GalNAc4S6S(b1-4)GlcNAc = target: GalNAc4S6S(b1-4)GlcNAc
How it was run: as §1

GalNAc6S(b1-4)GlcNAc = target: GalNAc6S(b1-4)GlcNAc
How it was run: as §1

Glc(a1-4)Glc = target: Glc(a1-4)Glc
How it was run: as §1

[14] = target: Glc(a1-4)Glc(a1-4)Glc(a1-4)Glc
How it was run: as §1

Glc(a1-6)Glc(a1-6)Glc = target: Glc(a1-6)Glc(a1-6)Glc
How it was run: as §1

[15] = target: Glc(a1-6)Glc(a1-6)Glc(a1-6)Glc
How it was run: as §1

B1: CpGal16 (Clavelina picta) (protein)
chain: MAKMITNYVGKRIECIMVATDMMSTVFSLASATGDLPFYINFRQRENSIVMNTRVHGKWQYEKSQSSGGMNFYEPFRLVVEVRPSVFKVTVSTMGEEDGITFNLQYSQITIKPDEIVAMHLGYCNLRSELLVTDL
In the case of B1, the “glycan array binding signal (z-score)” value [1] is reported as -0.266, the “glycan array binding signal (z-score)” value (Gal3S(b1-4)Glc) is reported as -0.148 and the “glycan array binding signal (z-score)” value (Gal3S(b1-4)Glc6S) is reported as 0.297. The “glycan array binding signal (z-score)” value (Gal3S(b1-4)GlcNAc) was -0.199, the “glycan array binding signal (z-score)” value [2] was 0.049 and the “glycan array binding signal (z-score)” value [3] was -0.279. For the same binder, the “glycan array binding signal (z-score)” value [4] was -0.248, the “glycan array binding signal (z-score)” value (Gal3S4S(b1-4)GlcNAc) was -0.392 and the “glycan array binding signal (z-score)” value (Gal3S6S(b1-4)GlcNAc) was -0.128. The “glycan array binding signal (z-score)” value (Gal3S6S(b1-4)GlcNAc6S) was -0.138, the “glycan array binding signal (z-score)” value (Gal4S(b1-4)GlcNAc) was -0.386 and the “glycan array binding signal (z-score)” value (Gal4S6S(b1-4)GlcNAc) was -0.338. For the same binder, the “glycan array binding signal (z-score)” value (Gal6P(b1-4)GlcNAc) was -0.464, the “glycan array binding signal (z-score)” value (Gal6S(b1-3)GlcNAc) was -0.282 and the “glycan array binding signal (z-score)” value (Gal6S(b1-3)GlcNAc6S) was -0.263. For the same binder, the “glycan array binding signal (z-score)” value (Gal6S(b1-4)Glc) was -0.172, the “glycan array binding signal (z-score)” value (Gal6S(b1-4)Glc6S) was -0.12 and the “glycan array binding signal (z-score)” value (Gal6S(b1-4)GlcNAc) was -0.387. For the same binder, the “glycan array binding signal (z-score)” value (Gal6S(b1-4)GlcNAc6S) was -0.175, the “glycan array binding signal (z-score)” value (GalNAc(a1-3)Gal) was -0.466 and the “glycan array binding signal (z-score)” value (GalNAc(a1-3)GalNAc) was -0.444. The “glycan array binding signal (z-score)” value [5] was -0.506, the “glycan array binding signal (z-score)” value [6] was -0.391 and the “glycan array binding signal (z-score)” value (GalNAc(b1-3)Gal) was -0.439. The “glycan array binding signal (z-score)” value [7] was -0.065, the “glycan array binding signal (z-score)” value [8] was -0.347 and the “glycan array binding signal (z-score)” value [9] was -0.371. The “glycan array binding signal (z-score)” value (GalNAc(b1-3)GalNAc) was -0.488, the “glycan array binding signal (z-score)” value (GalNAc(b1-3)GlcNAc) was 0.462 and the “glycan array binding signal (z-score)” value (GalNAc(b1-4)Gal(b1-4)Glc) was -0.269. For the same binder, the “glycan array binding signal (z-score)” value (GalNAc(b1-4)GlcNAc) was 0.046, the “glycan array binding signal (z-score)” value [10] was -0.411 and the “glycan array binding signal (z-score)” value [11] was -0.19. The “glycan array binding signal (z-score)” value [12] was -0.299, the “glycan array binding signal (z-score)” value (GalNAc(b1-4)GlcNAc6S) was -0.296 and the “glycan array binding signal (z-score)” value (GalNAc(b1-6)GalNAc) was -0.458. The “glycan array binding signal (z-score)” value (GalNAc3S(b1-4)GlcNAc) was 0.072, the “glycan array binding signal (z-score)” value (GalNAc3S(b1-4)GlcNAc3S) was 0.397 and the “glycan array binding signal (z-score)” value [13] was 0.353. For the same binder, the “glycan array binding signal (z-score)” value (GalNAc4S6S(b1-4)GlcNAc) was -0.331, the “glycan array binding signal (z-score)” value (GalNAc6S(b1-4)GlcNAc) was -0.272 and the “glycan array binding signal (z-score)” value (Glc(a1-4)Glc) was -0.332. The “glycan array binding signal (z-score)” value [14] was -0.354, the “glycan array binding signal (z-score)” value (Glc(a1-6)Glc(a1-6)Glc) was -0.402 and the “glycan array binding signal (z-score)” value [15] was -0.276.
